The text below walks through data of PubChem BioAssay AID488969 (Vanderbilt High Throughput Screening Facility, 2010).

Whole data set: some 110,000 compounds, median “z-score” near -0.1, cut for the highest 2% near 2. The list shows a part of the results.

The target in the test is Metabotropic glutamate receptor 8 (Rattus norvegicus) (UniProt P70579). The experiment in a line: mGluR8 Gi/Go-coupled signaling modulation – cell-based, rat, thallium flux, HTS, primary screen (AID 488969). As to conditions: HEK293 rat mGluR8, GIRK (G protein-gated inwardly rectifying potassium channel) thallium flux, FluoZin2; at 10 µM; stronger effect = higher value; submaximal glutamate (EC20) added with thallium.
UniProt P70579, sequence (P70579 whole entry, looked up): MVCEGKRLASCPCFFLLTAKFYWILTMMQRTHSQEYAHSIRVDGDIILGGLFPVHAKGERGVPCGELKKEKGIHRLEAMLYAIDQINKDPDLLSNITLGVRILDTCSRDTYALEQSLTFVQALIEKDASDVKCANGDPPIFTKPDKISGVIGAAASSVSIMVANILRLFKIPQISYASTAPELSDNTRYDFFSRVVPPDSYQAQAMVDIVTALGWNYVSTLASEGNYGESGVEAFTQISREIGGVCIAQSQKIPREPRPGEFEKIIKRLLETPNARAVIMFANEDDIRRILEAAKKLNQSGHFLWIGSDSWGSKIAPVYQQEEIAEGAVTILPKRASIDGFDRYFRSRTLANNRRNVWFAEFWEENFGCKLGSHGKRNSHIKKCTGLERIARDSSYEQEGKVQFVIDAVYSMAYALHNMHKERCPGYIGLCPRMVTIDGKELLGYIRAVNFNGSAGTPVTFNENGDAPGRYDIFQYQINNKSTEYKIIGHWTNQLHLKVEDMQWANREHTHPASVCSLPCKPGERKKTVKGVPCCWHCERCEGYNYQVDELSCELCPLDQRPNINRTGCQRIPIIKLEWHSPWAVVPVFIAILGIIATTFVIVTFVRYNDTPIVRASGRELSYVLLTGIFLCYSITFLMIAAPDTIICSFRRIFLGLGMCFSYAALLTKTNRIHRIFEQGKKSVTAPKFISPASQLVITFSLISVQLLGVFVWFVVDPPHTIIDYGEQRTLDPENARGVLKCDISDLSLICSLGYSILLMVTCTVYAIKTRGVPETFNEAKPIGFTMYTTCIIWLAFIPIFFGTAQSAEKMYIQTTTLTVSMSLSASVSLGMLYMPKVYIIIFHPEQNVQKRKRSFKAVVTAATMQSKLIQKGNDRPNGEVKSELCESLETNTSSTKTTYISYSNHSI
In turn, `COC(=O)c1ccc(CSc2n[nH]c(=S)s2)o1` registered a z-score of -0.155.
Then `Cc1ccc2oc(=O)n(CC(=O)O)c2c1`, with 0.169.
Then `CC(C)CCn1c(SCCc2ccccc2)nc2c1c(=O)[nH]c(=O)n2C`, with -0.0965; and `O=C(CCC(=O)N(c1cccc(F)c1)C(C(=O)NC1CCCC1)c1ccncc1)Nc1cccnc1` (stereo not given), with -0.0961; and `Cc1noc(NS(=O)(=O)c2ccc(N/C=C/C(=O)c3ccncc3)cc2)c1C`, with -0.141.
As to `COC(=O)CN1CCN(C(=O)c2ccc(F)cc2)c2ccccc2C1`, the z-score is 0.137.
In the case of `Cc1ccc(Sc2c(C)[nH]n(C(C)(C)C)c2=O)cc1`, the z-score stood at 0.791.
The result for `CCOc1ccc(Br)cc1C1C(C(=O)OC)=C(N)Oc2cc(N(C)C)ccc21` (stereo not given) reads -0.111; that for `O=c1c(CN2CCN(c3ccccn3)CC2)coc2ccccc12`, -0.00518.
Then `O=C(c1ccccc1)C(C(=O)N1CCc2ccccc2C1)n1ccccc1=O` (stereo not given), with 0.0663.
Then `Cc1nc2ccccc2c2nc3ccccc3n12`, with -0.583.
`Cc1cccc(C)c1NC(=O)C(c1ccccc1)N1CCOCC1` (stereo not given): the z-score was -0.108.
Take `Cc1[nH]nc(-c2ccc(O)c(C)c2O)c1-c1cnn(-c2ccccc2)c1`: the z-score is -2.01.
The compound `CC1CCC2(CC1)SCC(=O)N2c1ccccc1` (stereo not given) showed a z-score of 0.0047.
Compound `CCCOc1cccc(C(=O)N(Cc2ccc(OC)c(OC)c2)C2CCS(=O)(=O)C2)c1` (stereo not given) showed a z-score of -0.254.
Then `Cc1ccc(C(=O)Nc2ccc(F)cc2)o1`, with -0.42; and `COc1ccc(C(=O)NCc2cn3ccsc3n2)cc1OC`, with -0.547.
Then `CC1(C)Cc2ccccc2C(NNC(=O)c2ccccn2)=N1`, with 0.524; and `O=C(Cn1cnc2c(nnn2-c2ccc(F)cc2)c1=O)NCC1CCCO1` (stereo not given), with 0.462.
Regarding `CCNc1ccc2c(Cl)cc(=O)oc2c1`, the z-score stood at 0.629.
Then `CCOC(=O)C1(C(F)(F)F)N=C(c2cccnc2)OC(N2CCOCC2)=N1` (stereo not given), with 0.0727; and `Cc1ccc(SC(C)C(=O)NCc2cccnc2)cc1` (stereo not given), with -0.913; and `COCCNC(=O)C(c1ccc(F)cc1)N(Cc1ccco1)C(=O)CCC(=O)Nc1nccs1` (stereo not given), with 0.583.
The result for `COc1cc(C(=O)COC(=O)CNC(=O)C2CCCCC2)cc(OC)c1OC` reads 0.302.
Then `CCOc1ncccc1C(=O)OCC(=O)Nc1cccc(C(C)=O)c1`, with -0.737; and `COc1cc2oc(=O)c(Br)c(C)c2c(OC)c1OC`, with 0.0377.
For `Cc1ccc2oc(=O)c3cnn(CC(=O)N4CCN(c5ccccc5)CC4)c3c2c1`, the z-score is -0.394.
`Cc1cc(C(=O)N/N=C/c2cccnc2)c(C)o1` gave a z-score of 0.000639.
The result for `COc1ccc(Oc2nc(Oc3ccc(OC)cc3)nc(Oc3ccc(OC)cc3)n2)cc1` reads 0.397; that for `Cc1cc(C)cc(NC(=O)N2CCCC2C(=O)Nc2ccc(-n3cnnn3)cc2)c1` (stereo not given), -0.172.
Then `CCOC(=O)c1[nH]c2ccc(OC)cc2c1NC(=S)N1CCN(c2cccc(Cl)c2)CC1`, with 0.523.
With `CCC(=O)N1CCc2cc(S(=O)(=O)N3CCN(c4ccccn4)CC3)ccc21`, the z-score was -0.19.
Then `C=CCN1C(=O)/C(=C\c2cccs2)C(C(=O)OC)=C1C`, with -0.149; and `CN(C)C(CN1C(=O)C2CC=CCC2C1=O)c1cn(C)c2ccccc12` (stereo not given), with 0.00474.
The result for `CCOC(=O)c1c(C)c(C(=O)NCc2ccccn2)c(C)n1C` reads 0.016; that for `CCCC(=O)C1=C(N(C)c2ccccc2)CC(C)(C)C(C(=O)OC)C1=O` (stereo not given), -0.179; that for `Cc1occc1-c1nnc(SCC(=O)Nc2nc(C(C)(C)C)cs2)o1`, -0.256.
The result for `Cc1ccccc1Cn1cccc1/C=C1/C(=N)N2C=CSC2=NC1=O` reads 0.617; that for `Cc1cc(/C=C(\C#N)C(=O)NCc2ccco2)c(C)[nH]1`, -0.205.
Take `OCCOCCOCCn1c2ccccc2c2ccccc21`: the z-score stood at 0.632.
The result for `COc1ccc(-c2nsc3c(SCC(=O)Nc4cc(C)ccc4C)ncnc23)cc1` reads 0.00156; that for `COc1ccc(-n2nc(C(=O)NCC(=O)NCC3CCCO3)c3ccccc3c2=O)cc1Cl` (stereo not given), -0.286; that for `CC(Sc1nc(NCc2ccccc2)nc(N(C)C)n1)C(=O)Nc1ccccc1` (stereo not given), -0.344.
`COc1ccc(CN2C(=O)c3ccccc3C2=O)cc1C(=O)OC(C)C(=O)NC(N)=O` (stereo not given) yielded a z-score of -0.386.
The result for `c1ccc(-c2csc(Nc3cccnc3)n2)nc1` reads 0.0459; that for `O=C(COC(=O)c1ccc2ccccc2c1)NCCCc1ccccc1`, -0.194; that for `CCn1c(CCNC(=O)c2ccc(OC)cc2)nnc1SCc1ccc(Cl)cc1Cl`, -0.496.
The result for `Cc1ccc(S(=O)(=O)c2c(C)nn(C(C)(C)C)c2OC(=O)c2cccs2)cc1` reads -0.303.
The result for `CC1CCN(C(=S)c2ccc([N+](=O)[O-])cc2)CC1` reads -0.131; that for `Cc1cc(C)n2nc(C(=O)Nc3ccc(S(=O)(=O)N4CCCCC4)cc3)nc2n1`, 0.26.
Turning to `CC(C)(C)NC(=O)C(c1ccccc1)N(C(=O)C1CSC(=O)C1)c1ccccc1` (stereo not given), the z-score is -0.0608.
`O=[N+]([O-])c1ccccc1/C=N/NC1=NCCCCC1` gave a z-score of -0.196.
The result for `c1ccc2c(c1)CCCN2Cc1nnc2n1CCCCC2` reads -0.0623; that for `O=C(Nc1nccs1)c1ccc(COc2ccc(F)cc2)o1`, -0.0217.
The result for `O=C(OCn1ncc(Br)c(Br)c1=O)c1ccccc1Cl` reads -1.85.
Then `Cc1nn(-c2ncc(C(F)(F)F)cc2Cl)c(=O)n1-c1ccccc1`, with -0.0331; and `COCCNc1nc(-c2cc3ccccc3o2)cs1`, with -0.198; and `CCOCCCNC(=O)C(c1ccc(C)cc1)N(Cc1ccc2c(c1)OCO2)C(=O)c1cnccn1` (stereo not given), with 0.615.
With `CCc1ccc(N2CC(C(=O)Nc3cccnc3)CC2=O)cc1` (stereo not given), the z-score is -0.423.
The result for `CCCc1nnc(NC(=O)c2cc3ccccc3oc2=O)s1` reads 0.243; that for `Cc1nn(-c2cccc(Cl)c2)c2nc(C(F)(F)F)[nH]c(=O)c12`, -0.292.
Then `CCC1CCCCN1c1ccc([N+](=O)[O-])cc1/C=N/NC(=O)Cn1c2ccccc2c(=O)c2ccccc21` (stereo not given), with -0.1.
`O=C(c1sc(N2CCOCC2)nc1-c1ccccc1)N1CCCCC1` yielded a z-score of 0.0804.
The result for `CCOC(=O)c1cc2c(s1)-c1ccccc1CC2` reads -0.0854.
The result for `CC(OC(=O)c1ccncc1)C(=O)Nc1cccc(Cl)c1` (stereo not given) reads -0.257.
Then `CCc1ccc(NC(=O)CN(c2cccc(C)c2)S(C)(=O)=O)cc1`, with -0.0133; and `O=C1C2=C(NC(=S)NC2c2ccc(Cl)cc2)NC(c2ccc(Cl)cc2)N1c1ccc(Cl)cc1` (stereo not given), with -0.109; and `CCC(=O)Nc1cc(Cl)ccc1N1CCN(C(=O)CC)CC1`, with -2.26.
`CC(=O)N=c1c(C#N)cc2c(=O)n3ccccc3nc2n1Cc1ccccc1` yielded a z-score of -0.381.
The compound `Cc1ccccc1-n1c(SCc2cccc(F)c2)nc2[nH]ncc2c1=O` gave a z-score of -0.858.
